Laboratory results published in PMC4860835.
Results are given in words; binding and its absence hold for the method and conditions named. Binding seen in cells or lysates may run through a third protein. Some results given as binding are weak or reduced against the parent protein; the word gives no strength. For part of these data: Sequences can lack the tags named with a protein.

Protein sequences, listed by entry. Tags and fused reporters are not part of them.
UniProt Q99816: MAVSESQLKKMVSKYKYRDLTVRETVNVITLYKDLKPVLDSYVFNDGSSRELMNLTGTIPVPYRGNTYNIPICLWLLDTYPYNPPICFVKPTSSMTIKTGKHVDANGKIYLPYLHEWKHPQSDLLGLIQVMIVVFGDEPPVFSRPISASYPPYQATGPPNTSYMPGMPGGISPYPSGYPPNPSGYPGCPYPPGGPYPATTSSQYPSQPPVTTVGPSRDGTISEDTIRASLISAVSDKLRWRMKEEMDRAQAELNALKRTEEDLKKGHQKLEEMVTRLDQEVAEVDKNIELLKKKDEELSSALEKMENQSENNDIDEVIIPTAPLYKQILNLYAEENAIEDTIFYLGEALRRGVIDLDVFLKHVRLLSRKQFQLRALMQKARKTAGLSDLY
UniProt Q8WUM4: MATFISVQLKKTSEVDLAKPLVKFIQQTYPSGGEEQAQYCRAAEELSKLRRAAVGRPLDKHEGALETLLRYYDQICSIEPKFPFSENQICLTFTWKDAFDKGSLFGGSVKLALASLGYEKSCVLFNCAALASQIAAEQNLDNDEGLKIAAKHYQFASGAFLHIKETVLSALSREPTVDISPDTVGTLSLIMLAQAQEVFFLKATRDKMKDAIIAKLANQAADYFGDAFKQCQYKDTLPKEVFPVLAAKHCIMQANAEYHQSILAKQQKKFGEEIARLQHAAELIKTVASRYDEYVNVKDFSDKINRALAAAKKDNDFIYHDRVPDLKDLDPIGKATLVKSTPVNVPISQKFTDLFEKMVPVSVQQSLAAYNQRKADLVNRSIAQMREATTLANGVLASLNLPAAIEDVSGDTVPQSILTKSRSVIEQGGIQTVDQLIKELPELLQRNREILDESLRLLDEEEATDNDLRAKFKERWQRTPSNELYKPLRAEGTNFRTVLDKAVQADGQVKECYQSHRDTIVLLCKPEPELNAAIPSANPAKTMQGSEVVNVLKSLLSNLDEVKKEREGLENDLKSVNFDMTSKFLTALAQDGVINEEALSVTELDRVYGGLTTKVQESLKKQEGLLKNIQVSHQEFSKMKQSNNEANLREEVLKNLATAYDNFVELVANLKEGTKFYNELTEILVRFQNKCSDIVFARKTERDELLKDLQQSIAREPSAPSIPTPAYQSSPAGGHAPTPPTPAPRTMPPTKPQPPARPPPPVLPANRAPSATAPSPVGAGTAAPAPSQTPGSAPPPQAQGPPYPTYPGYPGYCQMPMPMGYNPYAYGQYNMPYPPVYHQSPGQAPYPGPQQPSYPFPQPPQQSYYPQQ

Key:
FLAG-TSG101 [1] = molecular target: FLAG-TSG101 (UniProt Q99816); test: co-IP; polyclonal anti-FLAG immunoprecipitation from cytosol of HEK293 cells co-expressing FLAG-TSG101 and WT or ∆TDS GFP-ALIX, in the presence or absence of supplemented GST-ALG-2 and CaCl2
[2] = molecular target: ALIX (endogenous, HEK293 cells) (human (endogenous in HEK293)) (UniProt Q8WUM4); test: co-IP; 1A3 anti-ALIX immunoprecipitation from cytosol of HEK293 cells expressing FLAG-TSG101, incubated with GST-ALG-2 plus CaCl2 for 30 min, then 30 min with or without EGTA
FLAG-TSG101 [3] = molecular target: FLAG-TSG101 (UniProt Q99816); test: co-IP
FLAG-TSG101 [4] = molecular target: FLAG-TSG101 (UniProt Q99816); test: co-IP; monoclonal anti-FLAG immunoprecipitation from cytosol of HEK293 cells expressing FLAG-CHMP4B or FLAG-TSG101, mixed with 10 μM CaCl2 or CaCl2 plus GST-ALG-2
FLAG-CHMP4B [5] = molecular target: T1, FLAG-CHMP4B (UniProt Q9H444); test: as above
T1 sequence: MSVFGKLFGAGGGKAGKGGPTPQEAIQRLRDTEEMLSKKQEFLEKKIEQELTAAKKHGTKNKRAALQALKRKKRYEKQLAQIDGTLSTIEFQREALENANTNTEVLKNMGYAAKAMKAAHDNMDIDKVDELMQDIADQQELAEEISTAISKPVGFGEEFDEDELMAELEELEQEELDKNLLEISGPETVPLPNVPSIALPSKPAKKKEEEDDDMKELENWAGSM

FLAG-TSG101 [6] = molecular target: FLAG-TSG101 (UniProt Q99816); test: condition: only control cytosol, without added CaCl2 or GST-ALG-2; co-IP; monoclonal anti-FLAG immunoprecipitation from control cytosol (no CaCl2 or GST-ALG-2 added) of HEK293 cells expressing FLAG-CHMP4B or FLAG-TSG101; TBS pH 7.4
FLAG-CHMP4B [7] = molecular target: T1, FLAG-CHMP4B; test: as above
[8] = molecular target: ALIX (endogenous, HEK293 cells) (human (endogenous in HEK293)) (UniProt Q8WUM4); test: co-IP; 3A9 anti-ALIX immunoprecipitation from pooled soluble (S) fractions of flotation centrifugation, 0.1% Triton X-100; HEK293 cells expressing FLAG-ALG-2 and treated with A23187 (Figure 4c) or serum-starved or EGF-stimulated (Figure 4d)
[9] = molecular target: ALIX (endogenous, HEK293 cells) (human (endogenous in HEK293)) (UniProt Q8WUM4); test: co-IP; 3A9 anti-ALIX immunoprecipitation from pooled membrane (M) fractions of flotation centrifugation, 0.1% Triton X-100; HEK293 cells expressing FLAG-ALG-2 and treated with A23187 (Figure 4c) or serum-starved or EGF-stimulated (Figure 4d)

With WT GFP-ALIX (from UniProt Q8WUM4 1-868) the binding (FLAG-TSG101 [1]) was “binds”.
FLAG-TSG101 (from UniProt Q99816 1-390) was tested, and the binding [2] was “binds”.
For “ALIX (endogenous, HEK293 cells) (from UniProt Q8WUM4 1-868)”, the binding (FLAG-TSG101 [3]) was “binds”, the binding (FLAG-TSG101 [4]) was “binds” and the binding (FLAG-CHMP4B [5]) was “binds”. The binding (FLAG-TSG101 [6]) was “no binding” and the binding (FLAG-CHMP4B [7]) was “no binding”.
“TSG101 (endogenous, HEK293 cells) (from UniProt Q99816 1-390)” was tested, and the binding [8] was “no binding (condition: in the soluble (S) fraction)” and the binding [9] was “binds”.
